Experimental data as given in paper PMC12820563, “FoxP3 forms a head-to-head dimer in vivo and stabilizes its multimerization on adjacent microsatellites”.
This is one part of the list.

Target: T1, MBP-FoxP1dN (Mus musculus, UniProt P58462 326-579)
T1 sequence: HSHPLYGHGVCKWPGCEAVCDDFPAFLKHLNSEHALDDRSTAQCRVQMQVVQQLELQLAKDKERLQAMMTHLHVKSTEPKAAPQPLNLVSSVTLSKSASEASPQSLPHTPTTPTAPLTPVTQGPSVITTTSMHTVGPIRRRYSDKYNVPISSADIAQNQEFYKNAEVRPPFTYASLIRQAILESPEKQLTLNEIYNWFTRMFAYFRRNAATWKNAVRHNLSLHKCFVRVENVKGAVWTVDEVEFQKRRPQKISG
Assay: PD-seq (MBP pull-down with sequencing); 20 mM Tris-HCl pH 7.5, 100 mM NaCl, 1.5 mM MgCl2, 0.4 uM protein, 0.1 uM dsDNA library, 30 min, room temperature, amylose pull-down; high values mean tight binding
Details: protein: recombinant; tags: His6-MBP; chain copies: 2; dsDNA, one strand shown
Procedure, shortened: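 Binding is given as reads-per-million enrichment, pull-down over input, with replicates pooled. The bait was an N-terminus-lacking mouse FoxP3 or FoxP1 fragment with a His6-MBP tag, expressed in E. coli and used at 0.4 µM with 0.1 µM Klenow-filled degenerate double-stranded DNA library for 30 min at room temperature in Tris pH 7.5 buffer with NaCl and MgCl2. Amylose resin pull-down with three washes was followed by proteinase K release, PCR barcoding and Illumina sequencing.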

Row | Sequence | binding signal
1 | GATGATTGTTCTCCCAGCTGATGAATTTACGCAGTCGAGTAAACAAATTTTCCTAATCTTTCTGTTCAAGCGCCATCTAC | 1.12 RPM ratio (pull-down/input)
2 | GATGATTGTTCTCCCAGCTGATGAATTGGGATACTCGAGTAAACAAATTTTCCTAATCTTTCTGTTCAAGCGCCATCTAC | 0.929 RPM ratio (pull-down/input)
3 | GATGATTGTTCTCCCAGCTGATGAATTGCGAATTTCGAGTAAACAAATTTTCCTAATCTTTCTGTTCAAGCGCCATCTAC | 1.26 RPM ratio (pull-down/input)
4 | GATGATTGTTCTCCCAGCTGATGAATTGATGGAGTCGAGTAAACAAATTTTCCTAATCTTTCTGTTCAAGCGCCATCTAC | 0.934 RPM ratio (pull-down/input)
5 | GATGATTGTTCTCCCAGCTGATGAATTTTCGGATTCGAGTAAACAAATTTTCCTAATCTTTCTGTTCAAGCGCCATCTAC | 0.943 RPM ratio (pull-down/input)
6 | GATGATTGTTCTCCCAGCTGATGAATTTGAGCCATCGAGTAAACAAATTTTCCTAATCTTTCTGTTCAAGCGCCATCTAC | 0.869 RPM ratio (pull-down/input)
7 | GATGATTGTTCTCCCAGCTGATGAATTATGATACTCGAGTAAACAAATTTTCCTAATCTTTCTGTTCAAGCGCCATCTAC | 1.12 RPM ratio (pull-down/input)
8 | GATGATTGTTCTCCCAGCTGATGAATTGTATGCTTCGAGTAAACAAATTTTCCTAATCTTTCTGTTCAAGCGCCATCTAC | 1.18 RPM ratio (pull-down/input)
9 | GATGATTGTTCTCCCAGCTGATGAATTCGCATTGTCGAGTAAACAAATTTTCCTAATCTTTCTGTTCAAGCGCCATCTAC | 1.2 RPM ratio (pull-down/input)
10 | GATGATTGTTCTCCCAGCTGATGAATTCAAAGACTCGAGTAAACAAATTTTCCTAATCTTTCTGTTCAAGCGCCATCTAC | 0.798 RPM ratio (pull-down/input)
11 | GATGATTGTTCTCCCAGCTGATGAATTTCCAAGATCGAGTAAACAAATTTTCCTAATCTTTCTGTTCAAGCGCCATCTAC | 0.831 RPM ratio (pull-down/input)
12 | GATGATTGTTCTCCCAGCTGATGAATTATTTTTATCGAGTAAACAAATTTTCCTAATCTTTCTGTTCAAGCGCCATCTAC | 1.4 RPM ratio (pull-down/input)
13 | GATGATTGTTCTCCCAGCTGATGAATTAAATCTGTCGAGTAAACAAATTTTCCTAATCTTTCTGTTCAAGCGCCATCTAC | 0.778 RPM ratio (pull-down/input)
14 | GATGATTGTTCTCCCAGCTGATGAATTCTCCTGATCGAGTAAACAAATTTTCCTAATCTTTCTGTTCAAGCGCCATCTAC | 0.841 RPM ratio (pull-down/input)
15 | GATGATTGTTCTCCCAGCTGATGAATTTGAGCTGTCGAGTAAACAAATTTTCCTAATCTTTCTGTTCAAGCGCCATCTAC | 0.889 RPM ratio (pull-down/input)
16 | GATGATTGTTCTCCCAGCTGATGAATTAGCTTGTTCGAGTAAACAAATTTTCCTAATCTTTCTGTTCAAGCGCCATCTAC | 0.973 RPM ratio (pull-down/input)

Row | Sequence | binding signal
17 | GATGATTGTTCTCCCAGCTGATGAATTAAGGAGGTCGAGTAAACAAATTTTCCTAATCTTTCTGTTCAAGCGCCATCTAC | 0.762 RPM ratio (pull-down/input)
18 | GATGATTGTTCTCCCAGCTGATGAATTCTGTTTCTCGAGTAAACAAATTTTCCTAATCTTTCTGTTCAAGCGCCATCTAC | 1.14 RPM ratio (pull-down/input)
19 | GATGATTGTTCTCCCAGCTGATGAATTCGCTTTCTCGAGTAAACAAATTTTCCTAATCTTTCTGTTCAAGCGCCATCTAC | 0.862 RPM ratio (pull-down/input)
20 | GATGATTGTTCTCCCAGCTGATGAATTGGGGGGCTCGAGTAAACAAATTTTCCTAATCTTTCTGTTCAAGCGCCATCTAC | 0.778 RPM ratio (pull-down/input)
21 | GATGATTGTTCTCCCAGCTGATGAATTAATTTCATCGAGTAAACAAATTTTCCTAATCTTTCTGTTCAAGCGCCATCTAC | 0.97 RPM ratio (pull-down/input)
22 | GATGATTGTTCTCCCAGCTGATGAATTTAAGAAGTCGAGTAAACAAATTTTCCTAATCTTTCTGTTCAAGCGCCATCTAC | 0.847 RPM ratio (pull-down/input)
23 | GATGATTGTTCTCCCAGCTGATGAATTAACAAAGTCGAGTAAACAAATTTTCCTAATCTTTCTGTTCAAGCGCCATCTAC | 1.2 RPM ratio (pull-down/input)
24 | GATGATTGTTCTCCCAGCTGATGAATTCCTCGGGTCGAGTAAACAAATTTTCCTAATCTTTCTGTTCAAGCGCCATCTAC | 0.702 RPM ratio (pull-down/input)
25 | GATGATTGTTCTCCCAGCTGATGAATTCATGTGTTCGAGTAAACAAATTTTCCTAATCTTTCTGTTCAAGCGCCATCTAC | 1.34 RPM ratio (pull-down/input)
26 | GATGATTGTTCTCCCAGCTGATGAATTAGACATGTCGAGTAAACAAATTTTCCTAATCTTTCTGTTCAAGCGCCATCTAC | 0.909 RPM ratio (pull-down/input)
27 | GATGATTGTTCTCCCAGCTGATGAATTTCGCGGTTCGAGTAAACAAATTTTCCTAATCTTTCTGTTCAAGCGCCATCTAC | 0.827 RPM ratio (pull-down/input)
28 | GATGATTGTTCTCCCAGCTGATGAATTCTGATCTTCGAGTAAACAAATTTTCCTAATCTTTCTGTTCAAGCGCCATCTAC | 0.888 RPM ratio (pull-down/input)
29 | GATGATTGTTCTCCCAGCTGATGAATTGTTTAAATCGAGTAAACAAATTTTCCTAATCTTTCTGTTCAAGCGCCATCTAC | 1.34 RPM ratio (pull-down/input)
30 | GATGATTGTTCTCCCAGCTGATGAATTGACACGTTCGAGTAAACAAATTTTCCTAATCTTTCTGTTCAAGCGCCATCTAC | 1.14 RPM ratio (pull-down/input)
31 | GATGATTGTTCTCCCAGCTGATGAATTGTCGTCGTCGAGTAAACAAATTTTCCTAATCTTTCTGTTCAAGCGCCATCTAC | 1.05 RPM ratio (pull-down/input)
32 | GATGATTGTTCTCCCAGCTGATGAATTCGACGTCTCGAGTAAACAAATTTTCCTAATCTTTCTGTTCAAGCGCCATCTAC | 0.816 RPM ratio (pull-down/input)
